# Source: US11639368B2, “Method for preventing and treating hyperpermeability” (Apeptico Forschung UND E[…], priority 2009, dated 2023)
# Test system: myosin light chain
# Assay: Phosphorylation of the myosin light chain (protein blot, densitometry)
# Format: cell-based
# Conditions: 125 ng/ml of pneumolysin; 50 μg/ml of peptide; human endothelial lung cells
# Text: Human endothelial cells of the lungs, isolated from capillaries of the lungs, were acquired from the company Lonza.
# The microbial toxins listeriolysin (LLO) and pneumolysin (PLY) were acquired from the University of Giessen.
# Human endothelial cells of the lungs, isolated from capillaries of the lungs, were cultivated in a manner common in the laboratory.
# Determination of Phosphorylation of the Myosin Light Chain
# For the determination of phosphorylation of the myosin light chain and the influence of the peptide SEQ ID No. 1 on the phosphorylation, the previously cultivated human endothelial cells of the lungs were washed with phosphate buffer pH 7.4, which contained 1 mM orthovanadate. The cell contents was lysed by incubation of the cells with a solution of 20 mM tris buffer (pH 7.4), 150 mM mol/1 of NaCl, 1 mM EDTA, 1 mM EGTA, 1% Triton X-100, 2.5 mM sodiumpyrophosphate, 1 mM betaglycerophosphate, 1 mM sodiumvanadate, 1 μg/ml of leupeptine, 1 mM phenylmethylsulfonylfluoride. In addition, the cells were digested with ultrasound. […]
# In order to make either the myosin light chain or the phosphorylated myosin light chain visible, the antibodies were made visible on diagnostic film using chemiluminescence in a manner common in the laboratory. The signal strength was determined with densitometry, and the ratio of myosin light chain to phosphorylated myosin light chain was determined.
sequence,measurement,value
"CGQREAPAGAAAKPWYC [peptide SEQ ID No. 3, reference compound]",increase in the content of phosphorylated myosin light chain by pneumolysin,no influence
